Experiment in all cases: Primary Screen for Target Class Profiling of Small Molecule Inhibitors of Methyltransferases
Assay [1] concerns the target Glycine N-methyltransferase (Homo sapiens) (UniProt Q14749). Particulars: purified enzyme, MTase-Glo SAH luminescence; measured here: GNMT inhibition; at 40 µM; stronger effect = lower value. Put shortly: (§1)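 Each enzyme was assayed with SAM and its substrate. SAH formation detected by MTase-Glo luminescence; single-point 40 uM screen[…].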
The target in assay [2] is Guanidinoacetate N-methyltransferase (Homo sapiens) (UniProt Q14353). The note with it: purified enzyme, MTase-Glo SAH luminescence; measured here: GAMT inhibition; at 40 µM; stronger effect = lower value. The gist of the method:
as §1

For assay [3], the target named is Histamine N-methyltransferase (Homo sapiens) (UniProt P50135). The note with it: purified enzyme, MTase-Glo SAH luminescence; measured here: HNMT inhibition; at 40 µM; stronger effect = lower value. The gist of the method: as §1
Assay [4] addresses Nicotinamide N-methyltransferase (Homo sapiens) (UniProt P40261). Particulars: purified enzyme, MTase-Glo SAH luminescence; measured here: NNMT inhibition; at 40 µM; stronger effect = lower value. The gist of the method: as §1
For assay [5], the target named is Phenylethanolamine N-methyltransferase (Homo sapiens) (UniProt P11086). The note with it: purified enzyme, MTase-Glo SAH luminescence; measured here: PNMT inhibition; at 40 µM; stronger effect = lower value. Put shortly:
as §1

Some of the results follow. These are further read-outs of the screen, such as a control signal, another cell line or another target. No call is given for them.
On the % scale 0 is the no-effect control and ±100 the full control effect.

For the molecule `CC(C)CNC(=O)c1ccc2c(=O)n(C(C)C)c3nn(CC(=O)NCc4ccccc4)c(=O)n3c2c1`, the activity change, negative = inhibition in assay [1] is 1.01%; in assay [2] it was 0.82%; in assay [3], 3.72%; in assay [4], -5.72%; in assay [5] it was -2.06%.

In the case of `CC(C)[S+](=O)([O-])N1CCC2(CC1)CC(c1cccc(C(F)(F)F)c1)=NO2`, the activity change, negative = inhibition in assay [1] is -1.58%; in assay [2], -0.309%; in assay [3] it was 2.28%; in assay [4], 0.882%; in assay [5] it was -5.24%.

As to `C(=C\c1ccccc1)/CN1CCN(c2nccc(-c3cccnc3)n2)CC1`, the activity change, negative = inhibition in assay [1] was -5.01%; in assay [2] it was -2.63%; in assay [3], -15.8%; in assay [4] it was -2.18%; in assay [5], -28%.

In the case of `Cc1ccc(CNC(=O)CCc2nnc3ccc(NCCCN4CCCC4=O)nn23)cc1`, the activity change, negative = inhibition in assay [1] came out at 1.91%; in assay [2], 2.67%; in assay [3], 12.8%; in assay [4], 7.25%; in assay [5] it was 9.26%.

As to `Nc1c(S(=O)(=O)O)cc(Nc2ccc(Nc3nc(Cl)nc(Nc4ccc(S(=O)(=O)O)cc4)n3)c(S(=O)(=O)O)c2)c2c1C(=O)c1ccccc1C2=O`, the activity change, negative = inhibition is -95.9% in assay [1]; -91.7% in assay [2]; -37.6% in assay [3]; -53% in assay [4]; -44.8% in assay [5].

As for `COc1cccc(CNC(=O)CCc2nnc3n(CCCOC(C)C)c(=O)c4ccccc4n23)c1`, the activity change, negative = inhibition in assay [1] is -8.64%; in assay [2], -2.83%; in assay [3] it was -6.76%; in assay [4], -7.05%; in assay [5] it was -8.25%.

Take `CC1(C)CC[C@]2(C(=O)O)CC[C@]3(C)C(=CCC4[C@@]5(C)CC[C@H](O[C@@H]6O[C@H](C(=O)O)[C@@H](O)[C@H](O[C@@H]7O[C@H](CO)[C@H](O)[C@H](O)[C@H]7O)[C@H]6O[C@@H]6O[C@H](CO)[C@@H](O)[C@H](O)[C@H]6O)C(C)(C)C5CC[C@]43C)[C@@H]2C1` (stereo partly drawn): the activity change, negative = inhibition in assay [1] is -4.96%; in assay [2], -7.93%; in assay [3] it was 1.49%; in assay [4] it was -19.4%; in assay [5], -12.5%.

As to `CCC(C)NC(=O)c1ccc2c(=O)n(CCC(C)C)c3nn(Cc4ccccc4)c(=O)n3c2c1` (stereo not drawn), the activity change, negative = inhibition in assay [1] is -5.38%; in assay [2] it was 0%; in assay [3] it was 2.54%; in assay [4], -3.02%; in assay [5], 0.908%.

Regarding `CCC1(C(=O)NC2CCCCC2)CCCCC(=O)N1` (stereo not drawn), the activity change, negative = inhibition in assay [1] is -1.14%; in assay [2] it was -2.19%; in assay [3] it was -0.045%; in assay [4] it was -0.807%; in assay [5], -4.33%.

`O=C(c1cccc(OC2CN(C3CCCC3)C2)c1)N1CCCC1`: the activity change, negative = inhibition was -0.969% in assay [1]; 1.58% in assay [2]; -13.5% in assay [3]; 1.43% in assay [4]; -3.6% in assay [5].

With `Cc1ccc(Nc2ccn3c(=O)n(CC(=O)Nc4ccc(F)cc4F)nc3n2)cc1`, the activity change, negative = inhibition in assay [1] was 7.45%; in assay [2], 0.6%; in assay [3] it was 4.61%; in assay [4] it was -0.676%; in assay [5], 2.79%.

On to `COc1ccc([C@H]2Cc3cccc(O)c3C(=O)O2)cc1`, for which the activity change, negative = inhibition in assay [1] was -4.45%; in assay [2], 5.56%; in assay [3], 4.6%; in assay [4], -8.87%; in assay [5], -0.974%.

As for `C/C=C/CN1C[C@@H](NC(=O)c2cccc(N(C)C)c2)C[C@H]1C(=O)NCC`, the activity change, negative = inhibition in assay [1] is -3.53%; in assay [2] it was -6.46%; in assay [3] it was -1.4%; in assay [4] it was -4.61%; in assay [5] it was -2.19%.

For `O=C([C@@H]1C[C@H](Oc2ccccc2)CN1C(=O)C1CC1)N1CCCC1`, the activity change, negative = inhibition in assay [1] was -3.83%; in assay [2] it was -3.87%; in assay [3], -0.748%; in assay [4] it was -6.04%; in assay [5], -12%.

Consider `CN1CCCC2(CCN(S(=O)(=O)c3ccc4[nH]c(=O)[nH]c4c3)C2)C1=O` (stereo not drawn), for which the activity change, negative = inhibition in assay [1] was -5.79%; in assay [2], -8.71%; in assay [3], -1.43%; in assay [4], -11.9%; in assay [5], -27.7%.

Regarding `CCCn1c(=O)c2ccccc2n2c(=O)n(CC(=O)c3ccc(OCC)cc3)nc12`, the activity change, negative = inhibition in assay [1] was determined as 3.06%; in assay [2], 0%; in assay [3] it was 8.06%; in assay [4], 5.69%; in assay [5] it was 5.82%.

Consider `COC1=C(C(=O)OCc2ccccc2)N(c2c(C)cccc2C)[S+](=O)([O-])c2ccccc21`, for which the activity change, negative = inhibition in assay [1] is -2.45%; in assay [2], -3.13%; in assay [3], -1.82%; in assay [4] it was -5.43%; in assay [5], -8.14%.

As for `CCCCCCCCCCCCC/C=C/[C@@H](O)[C@H](CO)N(C)C`, the activity change, negative = inhibition in assay [2] is 14.9%; in assay [4], -2.18%; in assay [5] it was 6.9%.

In the case of `C=C(C)C(=O)OC1C(OC(C)=O)/C(C=O)=C\CC/C(CO)=C/C2OC(=O)C(=C)C21` (stereo not drawn), the activity change, negative = inhibition is 0% in assay [1]; -1.1% in assay [2]; -1.43% in assay [3]; -9.8% in assay [4]; 1.47% in assay [5].

Regarding `CCOC(=O)c1cc2n(n1)CC(C)(C(=O)NCc1ccc(C)cc1)N(CCc1ccc(OCC)cc1)C2=O` (stereo not drawn), the activity change, negative = inhibition was 2.6% in assay [1]; 0% in assay [2]; 5.04% in assay [3]; -2.01% in assay [4]; 0.333% in assay [5].

Regarding `CC(=O)N[C@H](CC(C)C)c1nc(-c2ccc(C)nn2)no1`, the activity change, negative = inhibition was -5.38% in assay [1]; -6% in assay [2]; -3.91% in assay [3]; -14.1% in assay [4]; -7.26% in assay [5].

Consider `CN(C)CC1CCOC1(c1ccccc1)c1ccccc1` (stereo not drawn), for which the activity change, negative = inhibition in assay [1] was 5.57%; in assay [2] it was 8.86%; in assay [3], 8.51%; in assay [4], -3.73%; in assay [5], 6.01%.

For `CC(C)CCN1CC2(CCCN(S(=O)(=O)N3CCOCC3)C2)CCC1=O` (stereo not drawn), the activity change, negative = inhibition in assay [1] is -0.146%; in assay [2], 5.9%; in assay [3], 2.04%; in assay [4], -1.31%; in assay [5] it was 4.05%.

On to `CCCNC(=O)N1CCC(Cc2ccc(CCNC(C)=O)cc2)CC1`, for which the activity change, negative = inhibition is -4.24% in assay [1]; -10.5% in assay [2]; -3.09% in assay [3]; -5.05% in assay [4]; -4.95% in assay [5].

Consider `Cc1ccc(C(=O)O)c2c1N[C@@H](c1ccc(Cl)cc1)[C@H]1CC=C[C@@H]21`, for which the activity change, negative = inhibition in assay [1] is -31.4%; in assay [2], 2.75%; in assay [3], 4.55%; in assay [4], -1.56%; in assay [5] it was -0.876%.

As to `CC1(C(=O)NCc2ccc(F)cc2)Cn2cnc(C(=O)NCCc3ccccc3Cl)c2C(=O)N1C1CC1` (stereo not drawn), the activity change, negative = inhibition in assay [1] is -0.323%; in assay [2], 1.12%; in assay [3], 3.52%; in assay [4], -1.28%; in assay [5], 2.67%.

Turning to `O=C1NC(=NC2CCCC2)C2(CCN([S+](=O)([O-])c3cccc(C(F)(F)F)c3)C2)N1c1cccnc1` (stereo not drawn), the activity change, negative = inhibition is -6.81% in assay [1]; 0.206% in assay [2]; -1.13% in assay [3]; -0.591% in assay [4]; 1.32% in assay [5].

On to `CN1CCCC2(CCN(c3nc4c(cc3C(N)=O)CCC4)C2)C1=O` (stereo not drawn), for which the activity change, negative = inhibition is -0.926% in assay [1]; -5.74% in assay [2]; -34.7% in assay [3]; -10.3% in assay [4]; 0.029% in assay [5].

`CN(Cc1ccccc1)Cc1cc(CC2(NC3CCCCC3)COC2)no1`: the activity change, negative = inhibition in assay [1] was -0.893%; in assay [2], -1.98%; in assay [3] it was 0.332%; in assay [4] it was -0.42%; in assay [5], -0.101%.

For the molecule `Cc1ccc(CNC(=O)C2(C)Cn3nc(C(=O)NCc4ccc(OC(C)C)cc4)cc3C(=O)N2C)cc1` (stereo not drawn), the activity change, negative = inhibition was found to be 0.323% in assay [1]; 1.02% in assay [2]; 2.07% in assay [3]; 1.11% in assay [4]; 1.28% in assay [5].

For `O=C1Cc2c(-c3ccccc3OCc3ccccc3)n[nH]c2CN1CC1CCOCC1`, the activity change, negative = inhibition is -6.81% in assay [1]; -2.46% in assay [2]; -6.19% in assay [3]; -17.1% in assay [4]; -2.18% in assay [5].

Turning to `COc1cc(/C=C/C(=O)O)ccc1O[C@@H]1O[C@H](CO)[C@@H](O)[C@H](O)[C@H]1O[C@@H]1OC[C@](O)(CO)[C@H]1O`, the activity change, negative = inhibition in assay [1] was 8.32%; in assay [2], 6.48%; in assay [3] it was 10.2%; in assay [4], -7%; in assay [5], 2.42%.

`CC(C)NC(=O)c1ccc2c(=O)n(C(C)C)c3nn(CC(=O)c4ccc(Cl)cc4)c(=O)n3c2c1`: the activity change, negative = inhibition in assay [1] was 4.54%; in assay [2], 1.34%; in assay [3], 9.19%; in assay [4] it was 4.17%; in assay [5], 8.06%.

As to `CCCn1c(=O)c2ccc(C(=O)NC3CCCCC3)cc2n2c(=O)n(Cc3ccc(Cl)cc3)nc12`, the activity change, negative = inhibition in assay [1] is -0.146%; in assay [2] it was 1.71%; in assay [3], 2.25%; in assay [4], -2%; in assay [5], -2.26%.

As to `CC(=O)O[C@@H]1[C@H](O[C@@H]2OC[C@](O)(CO)[C@H]2O)[C@@H](O[C@@H]2O[C@@H](C)[C@H](O)[C@@H](O[C@@H]3O[C@H](CO)[C@@H](O)[C@H](O)[C@H]3O)[C@H]2O)[C@H](OC(=O)[C@]23CCC(C)(C)C[C@H]2C2=CCC4[C@@]5(C)C[C@H](O)[C@H](O[C@@H]6O[C@H](C(=O)O)[C@@H](O)[C@H](O)[C@H]6O)[C@@](C)(C(=O)O)C5CC[C@@]4(C)[C@]2(C)CC3)O[C@@H]1C` (stereo partly drawn), the activity change, negative = inhibition came to 0.058% in assay [1]; 14.3% in assay [2]; 10.1% in assay [3]; 2.1% in assay [4]; 11.6% in assay [5].

The values are drawn from PubChem BioAssay AID1745853 (National Center for Advancing Translational Sciences (NCATS), 2022).
